Laboratory results as given in patent US8741944B2, “Anti-infective agents against intracellular pathogens” (priority 2007, dated 2014).
Where two headings read alike, the source gives them in different places.

System: NCI-H322M (Non-Small Cell Lung Cancer)

Which results are given for “4-[5-(2-Phenanthrenyl)-3-(trifluoromethyl)-1H-pyrazol-1-yl]-phenyl -guanidine [Compound 71]”?
GI50: 1.36 µM; TGI: 2.64E−06; Percent Growth (Log10 Concentration −4.0): −59%; Percent Growth (Log10 Concentration −5.0): −100%; Percent Growth (Log10 Concentration −6.0): 73%; Percent Growth (Log10 Concentration −7.0): 76%; Percent Growth (Log10 Concentration −8.0): 65%

For `NCC(=O)Nc1ccc(-n2nc(C(F)(F)F)cc2-c2ccc3c(ccc4ccccc43)c2)cc1` [Compound 70, 2-Amino-N-{4-[5-(2-phenanthrenyl)-3-(trifluoromethyl)-1H-pyrazol-1-yl]-phenyl}-acetamide], which TGI is on record?
Its TGI is 2.18E−06.

And the “Mean Optical Densities” value (Log10 Concentration −4.0)?
The value was 0.269.

What about the “Percent Growth” value (Log10 Concentration −4.0 (head prints −6.0)) of the same molecule?
Its value is −57%.

What about the “Mean Optical Densities” value (Log10 Concentration −5.0) of the same molecule?
Its value is 0.100.

What about the “Percent Growth” value (Log10 Concentration −5.0) of the same molecule?
Its value is −84%.

And the “Mean Optical Densities” value (Log10 Concentration −6.0)?
The value was 1.420.

And the “Percent Growth” value (Log10 Concentration −6.0)?
Its value is 43%.

What about the “Mean Optical Densities” value (Log10 Concentration −7.0) of the same molecule?
The value was 1.562.

And the “Percent Growth” value (Log10 Concentration −7.0)?
The value was 51%.

And the “Mean Optical Densities” value (Log10 Concentration −8.0)?
The value was 1.363.
